# Reference: the supplement of paper PMC10037445
# Over roughly 2,900 compounds, “NF-kB SEAP reporter activity, fold change vs agonist alone” has its median near 0.99; the highest 2% begin near 2.6. The list shows a part of the results.
# Key:
# RAW-Dual [1] = test: NF-kB SEAP reporter activity, fold change vs agonist alone; higher = enhanced NF-kB activity
# How it was run: (§1)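 RAW-Dual macrophages (50,000 cells/well in DMEM, 384-well plates) received 50 nL of library stock by pin tool, then a PRR agonist 1 h later, and were kept at 37 °C, 5% CO2. After 20 hours, supernatant was read for IRF by QuantiLuc luminescence and for NF-κB by QuantiBlue absorbance at 620 nm. Reporter activity is fold change over agonist-alone wells. Cytotoxic wells had IncuCyte confluency below 70% of agonist controls in both mask sets.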
# RAW-Dual [2] = test: NF-kB SEAP reporter activity, fold change vs agonist alone; cytotoxicity flag (confluency mask): not cytotoxic; higher = enhanced NF-kB activity
# How it was run: as §1
# RAW-Dual [3] = test: NF-kB SEAP reporter activity, fold change vs agonist alone; cytotoxicity flag (confluency mask): cytotoxic (confluency <70% of control); higher = enhanced NF-kB activity
# How it was run: as §1
# [4] = library stock concentration (final ~1000-fold dilution): 10 mM, cytotoxicity flag (confluency mask): not cytotoxic, agonist: Imiquimod (TLR7) […]
# [5] = library stock concentration (final ~1000-fold dilution): 10 mM, cytotoxicity flag (confluency mask): not cytotoxic, agonist: MPLA (TLR4) […]
# [6] = agonist: ODN 1826 (TLR9) 0.5 ug/mL
# [7] = agonist: Pam2CSK4 (TLR2/6) 0.1 ug/mL
# [8] = agonist: Pam3CSK4 (TLR2/1) 0.1 ug/mL
# [9] = library stock concentration (final ~1000-fold dilution): 10 mM water, cytotoxicity flag (confluency mask): not cytotoxic, agonist: Imiquimod (TLR7) […]
# [10] = library stock concentration (final ~1000-fold dilution): 10 mM water, cytotoxicity flag (confluency mask): not cytotoxic, agonist: MPLA (TLR4) […]
# [11] = library stock concentration (final ~1000-fold dilution): 10 mM, cytotoxicity flag (confluency mask): cytotoxic (confluency <70% of control), agonist: Imiquimod (TLR7) […]
# [12] = library stock concentration (final ~1000-fold dilution): 10 mM, cytotoxicity flag (confluency mask): cytotoxic (confluency <70% of control), agonist: MPLA (TLR4) […]
compound,measurement,setting,value
CCOC(=O)C(N)Cc1ccc(-c2cc(OC(c3ccc(Cl)cc3-n3ccc(C)n3)C(F)(F)F)nc(N)n2)cc1.O=C(O)CNC(=O)c1ccccc1 (configuration not stated),NF-kB SEAP reporter activity,RAW-Dual [1]; [4],0.878
same,NF-kB SEAP reporter activity,RAW-Dual [1]; [5],1
CCOC(=O)C(N)Cc1ccc(-c2cc(OC(c3ccc(Cl)cc3-n3ccc(C)n3)C(F)(F)F)nc(N)n2)cc1.O=C(O)CNC(=O)c1ccccc1 (configuration not stated) (library stock concentration (final ~1000-fold dilution): 10 mM),NF-kB SEAP reporter activity,RAW-Dual [2]; agonist: LPS (TLR4) 0.1 ug/mL,0.456
same,NF-kB SEAP reporter activity,RAW-Dual [2]; [6],0.938
same,NF-kB SEAP reporter activity,RAW-Dual [2]; [7],0.584
same,NF-kB SEAP reporter activity,RAW-Dual [2]; [8],0.914
C[N+](C)(C)CCOC(=O)CCC(=O)OCC[N+](C)(C)C (library stock concentration (final ~1000-fold dilution): 10 mM water),NF-kB SEAP reporter activity,RAW-Dual [2]; agonist: LPS (TLR4) 0.1 ug/mL,1
same,NF-kB SEAP reporter activity,RAW-Dual [2]; [6],1.06
same,NF-kB SEAP reporter activity,RAW-Dual [2]; [7],1.21
same,NF-kB SEAP reporter activity,RAW-Dual [2]; [8],1.05
C[N+](C)(C)CCOC(=O)CCC(=O)OCC[N+](C)(C)C,NF-kB SEAP reporter activity,RAW-Dual [1]; [9],0.911
same,NF-kB SEAP reporter activity,RAW-Dual [1]; [10],1.01
CC(Cc1ccc(O)c(O)c1)(NN)C(=O)O (configuration not stated),NF-kB SEAP reporter activity,RAW-Dual [1]; [4],0.949
same,NF-kB SEAP reporter activity,RAW-Dual [1]; [5],0.988
CC(Cc1ccc(O)c(O)c1)(NN)C(=O)O (configuration not stated) (library stock concentration (final ~1000-fold dilution): 10 mM),NF-kB SEAP reporter activity,RAW-Dual [2]; agonist: LPS (TLR4) 0.1 ug/mL,1.1
same,NF-kB SEAP reporter activity,RAW-Dual [2]; [6],0.98
same,NF-kB SEAP reporter activity,RAW-Dual [2]; [7],0.954
same,NF-kB SEAP reporter activity,RAW-Dual [2]; [8],1.14
CCCCCCCCCCCCCCCCOP(=O)([O-])OCC[N+](C)(C)C,NF-kB SEAP reporter activity,RAW-Dual [1]; [9],1.02
same,NF-kB SEAP reporter activity,RAW-Dual [1]; [10],1.27
CCCCCCCCCCCCCCCCOP(=O)([O-])OCC[N+](C)(C)C (library stock concentration (final ~1000-fold dilution): 10 mM water),NF-kB SEAP reporter activity,RAW-Dual [2]; agonist: LPS (TLR4) 0.1 ug/mL,1.18
same,NF-kB SEAP reporter activity,RAW-Dual [2]; [6],1.05
same,NF-kB SEAP reporter activity,RAW-Dual [2]; [7],0.97
same,NF-kB SEAP reporter activity,RAW-Dual [2]; [8],1.13
Cc1cc(O)c(-c2ccc(C(C)CN)cc2)c2c1[nH]c(=O)c1sccc12.Cl (configuration not stated) (library stock concentration (final ~1000-fold dilution): 10 mM),NF-kB SEAP reporter activity,RAW-Dual [3]; agonist: LPS (TLR4) 0.1 ug/mL,0.417
same,NF-kB SEAP reporter activity,RAW-Dual [3]; [6],0.188
same,NF-kB SEAP reporter activity,RAW-Dual [3]; [7],0.0673
same,NF-kB SEAP reporter activity,RAW-Dual [3]; [8],0.13
Cc1cc(O)c(-c2ccc(C(C)CN)cc2)c2c1[nH]c(=O)c1sccc12.Cl (configuration not stated),NF-kB SEAP reporter activity,RAW-Dual [1]; [11],0.193
same,NF-kB SEAP reporter activity,RAW-Dual [1]; [12],0.246
COc1ccccc1OCC(O)CN1CCN(CC(=O)Nc2c(C)cccc2C)CC1.Cl.Cl (configuration not stated) (library stock concentration (final ~1000-fold dilution): 10 mM),NF-kB SEAP reporter activity,RAW-Dual [2]; agonist: LPS (TLR4) 0.1 ug/mL,0.912
same,NF-kB SEAP reporter activity,RAW-Dual [2]; [6],0.972
same,NF-kB SEAP reporter activity,RAW-Dual [2]; [7],1.01
same,NF-kB SEAP reporter activity,RAW-Dual [2]; [8],1.05
COc1ccccc1OCC(O)CN1CCN(CC(=O)Nc2c(C)cccc2C)CC1.Cl.Cl (configuration not stated),NF-kB SEAP reporter activity,RAW-Dual [1]; [4],0.889
same,NF-kB SEAP reporter activity,RAW-Dual [1]; [5],0.916
Oc1c(F)cc(-c2cnccc2-c2ccc(N3CCOCC3)cc2)cc1F,NF-kB SEAP reporter activity,RAW-Dual [1]; [4],1.08
same,NF-kB SEAP reporter activity,RAW-Dual [1]; [5],0.911
Oc1c(F)cc(-c2cnccc2-c2ccc(N3CCOCC3)cc2)cc1F (library stock concentration (final ~1000-fold dilution): 10 mM),NF-kB SEAP reporter activity,RAW-Dual [2]; agonist: LPS (TLR4) 0.1 ug/mL,1.12
same,NF-kB SEAP reporter activity,RAW-Dual [2]; [6],0.913
same,NF-kB SEAP reporter activity,RAW-Dual [2]; [7],0.947
same,NF-kB SEAP reporter activity,RAW-Dual [2]; [8],0.73
CCCCCCCCCCCCc1ccc(S(=O)(=O)Nc2nncs2)cc1 (library stock concentration (final ~1000-fold dilution): 10 mM),NF-kB SEAP reporter activity,RAW-Dual [3]; agonist: LPS (TLR4) 0.1 ug/mL,0.575
same,NF-kB SEAP reporter activity,RAW-Dual [3]; [6],0.796
same,NF-kB SEAP reporter activity,RAW-Dual [3]; [7],0.819
same,NF-kB SEAP reporter activity,RAW-Dual [3]; [8],0.683
CCCCCCCCCCCCc1ccc(S(=O)(=O)Nc2nncs2)cc1,NF-kB SEAP reporter activity,RAW-Dual [1]; [11],0.947
same,NF-kB SEAP reporter activity,RAW-Dual [1]; [12],0.824
CN1CCN(c2c(F)cc3c(=O)c(C(=O)O)cn4c3c2OCN4C)CC1 (library stock concentration (final ~1000-fold dilution): 2 mM),NF-kB SEAP reporter activity,RAW-Dual [2]; agonist: LPS (TLR4) 0.1 ug/mL,1.22
same,NF-kB SEAP reporter activity,RAW-Dual [2]; [6],1.04
same,NF-kB SEAP reporter activity,RAW-Dual [2]; [7],1.11
same,NF-kB SEAP reporter activity,RAW-Dual [2]; [8],1.18
CN1CCN(c2c(F)cc3c(=O)c(C(=O)O)cn4c3c2OCN4C)CC1,NF-kB SEAP reporter activity,"RAW-Dual [1]; library stock concentration (final ~1000-fold dilution): 2 mM, cytotoxicity flag (confluency mask): not cytotoxic, agonist: Imiquimod (TLR7) […]",1.04
same,NF-kB SEAP reporter activity,"RAW-Dual [1]; library stock concentration (final ~1000-fold dilution): 2 mM, cytotoxicity flag (confluency mask): not cytotoxic, agonist: MPLA (TLR4) […]",1.01
CC(NCc1ccc(OCc2cccc(F)c2)cc1)C(N)=O (configuration not stated) (library stock concentration (final ~1000-fold dilution): 10 mM),NF-kB SEAP reporter activity,RAW-Dual [2]; agonist: LPS (TLR4) 0.1 ug/mL,1.32
same,NF-kB SEAP reporter activity,RAW-Dual [2]; [6],0.933
same,NF-kB SEAP reporter activity,RAW-Dual [2]; [7],1.16
same,NF-kB SEAP reporter activity,RAW-Dual [2]; [8],0.745
CC(NCc1ccc(OCc2cccc(F)c2)cc1)C(N)=O (configuration not stated),NF-kB SEAP reporter activity,RAW-Dual [1]; [5],1.07
CC(CN(C)C)Oc1nc(Nc2cc3cccc(Cl)c3cn2)cnc1C#N (configuration not stated) (library stock concentration (final ~1000-fold dilution): 10 mM),NF-kB SEAP reporter activity,RAW-Dual [2]; agonist: LPS (TLR4) 0.1 ug/mL,0.783
same,NF-kB SEAP reporter activity,RAW-Dual [2]; [6],1.33
same,NF-kB SEAP reporter activity,RAW-Dual [2]; [7],0.55
same,NF-kB SEAP reporter activity,RAW-Dual [2]; [8],0.508
CC(CN(C)C)Oc1nc(Nc2cc3cccc(Cl)c3cn2)cnc1C#N (configuration not stated),NF-kB SEAP reporter activity,RAW-Dual [1]; [4],1.03
same,NF-kB SEAP reporter activity,RAW-Dual [1]; [5],0.831
CNC(=O)c1ccc(C)c(-n2c(C)cc(OCc3ccc(F)cc3F)c(Br)c2=O)c1,NF-kB SEAP reporter activity,RAW-Dual [1]; [4],0.696
same,NF-kB SEAP reporter activity,RAW-Dual [1]; [5],1.31
CNC(=O)c1ccc(C)c(-n2c(C)cc(OCc3ccc(F)cc3F)c(Br)c2=O)c1 (library stock concentration (final ~1000-fold dilution): 10 mM),NF-kB SEAP reporter activity,RAW-Dual [2]; agonist: LPS (TLR4) 0.1 ug/mL,1.55
same,NF-kB SEAP reporter activity,RAW-Dual [2]; [6],0.711
same,NF-kB SEAP reporter activity,RAW-Dual [2]; [7],0.565
same,NF-kB SEAP reporter activity,RAW-Dual [2]; [8],0.403
Cc1cc(OCc2nnc(SC3CCCC3)n2-c2cccnc2)ccc1-c1ccc(S(C)(=O)=O)cc1 (library stock concentration (final ~1000-fold dilution): 10 mM),NF-kB SEAP reporter activity,RAW-Dual [3]; agonist: LPS (TLR4) 0.1 ug/mL,0.303
same,NF-kB SEAP reporter activity,RAW-Dual [3]; [6],0.336
same,NF-kB SEAP reporter activity,RAW-Dual [3]; [7],0.132
same,NF-kB SEAP reporter activity,RAW-Dual [3]; [8],0.162
Cc1cc(OCc2nnc(SC3CCCC3)n2-c2cccnc2)ccc1-c1ccc(S(C)(=O)=O)cc1,NF-kB SEAP reporter activity,RAW-Dual [1]; [11],0.296
same,NF-kB SEAP reporter activity,RAW-Dual [1]; [12],0.342
